Test results reported in the CheMixHub viscosity set.
Several values for one entry are separate records, joined by “and”; a condition that tells them apart may be missing. Equal entries are not always repeated. Further values from the same series stand in other lists.

Assay: xn = mol fraction of the nth substance listed

CCOCCO + O
Details	viscosity [mPa·s]
298.15 K, 101 kPa, x1 = 0.0109	1.07
298.15 K, 101 kPa, x1 = 0.0249	1.316
298.15 K, 101 kPa, x1 = 0.0499	1.781
298.15 K, 101 kPa, x1 = 0.075	2.226
298.15 K, 101 kPa, x1 = 0.1007	2.616
298.15 K, 101 kPa, x1 = 0.1486	3.152
298.15 K, 101 kPa, x1 = 0.203	3.473
308.15 K, 101.33 kPa, x1 = 0.0104	0.83
308.15 K, 101.33 kPa, x1 = 0.0217	0.98
308.15 K, 101.33 kPa, x1 = 0.0341	1.12
308.15 K, 101.33 kPa, x1 = 0.0476	1.31
308.15 K, 101.33 kPa, x1 = 0.0625	1.49
308.15 K, 101.33 kPa, x1 = 0.0789	1.69
308.15 K, 101.33 kPa, x1 = 0.0972	1.88
308.15 K, 101.33 kPa, x1 = 0.1176	2.07
313.15 K, 101.33 kPa, x1 = 0.0104	0.74
313.15 K, 101.33 kPa, x1 = 0.0217	0.85
313.15 K, 101.33 kPa, x1 = 0.0341	0.97
313.15 K, 101.33 kPa, x1 = 0.0476	1.12
313.15 K, 101.33 kPa, x1 = 0.0625	1.27
313.15 K, 101.33 kPa, x1 = 0.0789	1.43
313.15 K, 101.33 kPa, x1 = 0.0972	1.58
313.15 K, 101.33 kPa, x1 = 0.1176	1.73
313.15 K, 101.33 kPa, x1 = 0.1666	1.99
313.15 K, 101.33 kPa, x1 = 0.1964	2.08
313.15 K, 101.33 kPa, x1 = 0.2307	2.17
313.15 K, 101.33 kPa, x1 = 0.2707	2.21
313.15 K, 101.33 kPa, x1 = 0.3181	2.21
313.15 K, 101.33 kPa, x1 = 0.3749	2.17
313.15 K, 101.33 kPa, x1 = 0.4443	2.09
313.15 K, 101.33 kPa, x1 = 0.6428	1.78
313.15 K, 101.33 kPa, x1 = 0.7916	1.56
318.15 K, 101.33 kPa, x1 = 0.0104	0.68
318.15 K, 101.33 kPa, x1 = 0.0217	0.78
318.15 K, 101.33 kPa, x1 = 0.0341	0.87
318.15 K, 101.33 kPa, x1 = 0.0476	0.99
318.15 K, 101.33 kPa, x1 = 0.0625	1.1
318.15 K, 101.33 kPa, x1 = 0.0789	1.23
318.15 K, 101.33 kPa, x1 = 0.1176	1.41
318.15 K, 101.33 kPa, x1 = 0.1406	1.51
318.15 K, 101.33 kPa, x1 = 0.1666	1.61
318.15 K, 101.33 kPa, x1 = 0.1964	1.68
318.15 K, 101.33 kPa, x1 = 0.2307	1.75
318.15 K, 101.33 kPa, x1 = 0.2707	1.77
318.15 K, 101.33 kPa, x1 = 0.3181	1.77
318.15 K, 101.33 kPa, x1 = 0.3749	1.75
318.15 K, 101.33 kPa, x1 = 0.4443	1.7
318.15 K, 101.33 kPa, x1 = 0.5311	1.61
318.15 K, 101.33 kPa, x1 = 0.6428	1.49

C[C@H](N)C(=O)O + O
viscosity
Details	293.15 K	298.15 K	303.15 K	308.15 K	313.15 K	318.15 K
100 kPa, x1 = 0.0004	–	–	0.8034 mPa·s	0.7261 mPa·s	0.6608 mPa·s	–
100 kPa, x1 = 0.0007	–	–	0.8057 mPa·s	–	0.6633 mPa·s	–
100 kPa, x1 = 0.001	–	–	0.8081 mPa·s and 0.8105 mPa·s	0.7308 mPa·s and 0.7333 mPa·s	0.6658 mPa·s	–
100 kPa, x1 = 0.0018	–	0.9055 mPa·s	0.8128 mPa·s	0.7356 mPa·s	0.6703 mPa·s	–
100 kPa, x1 = 0.0022	–	–	0.8155 mPa·s	–	0.6725 mPa·s	–
101 kPa, x1 = 9e-05	–	0.901 mPa·s	0.8083 mPa·s	–	0.666 mPa·s	–
101 kPa, x1 = 0.00018	–	–	0.8131 mPa·s	0.7348 mPa·s	0.6702 mPa·s	–
101 kPa, x1 = 0.00027	–	0.9106 mPa·s	0.8196 mPa·s	0.7317 mPa·s	0.6774 mPa·s	–
101 kPa, x1 = 0.00036	–	0.9167 mPa·s	0.8258 mPa·s	–	0.6848 mPa·s	–
101 kPa, x1 = 0.0004	–	–	0.8 mPa·s	0.722 mPa·s	0.655 mPa·s	0.599 mPa·s
101 kPa, x1 = 0.00045	1.008 mPa·s	0.8958 mPa·s	0.8024 mPa·s	0.7238 mPa·s	0.6571 mPa·s	0.6014 mPa·s
101 kPa, x1 = 0.0007	–	–	0.804 mPa·s	0.726 mPa·s	0.659 mPa·s	0.602 mPa·s
101 kPa, x1 = 0.0009	1.014 mPa·s	0.9014 mPa·s	0.8076 mPa·s	0.7287 mPa·s	0.6617 mPa·s	0.6057 mPa·s
101 kPa, x1 = 0.001	–	–	0.807 mPa·s and 0.811 mPa·s	0.729 mPa·s and 0.733 mPa·s	0.661 mPa·s and 0.664 mPa·s	0.604 mPa·s and 0.607 mPa·s
101 kPa, x1 = 0.00135	1.02 mPa·s	0.907 mPa·s	0.8128 mPa·s	0.7336 mPa·s	0.6663 mPa·s	0.61 mPa·s
101 kPa, x1 = 0.0018	–	0.9126 mPa·s	0.816 mPa·s and 0.818 mPa·s	0.736 mPa·s	0.6708 mPa·s	0.61 mPa·s and 0.6144 mPa·s
101 kPa, x1 = 0.002245	–	–	0.8233 mPa·s	0.7434 mPa·s	0.6755 mPa·s	0.6188 mPa·s
101 kPa, x1 = 0.002695	1.038 mPa·s	0.9239 mPa·s and 0.923 mPa·s	0.8286 mPa·s	0.7483 mPa·s	0.6801 mPa·s	0.6231 mPa·s
101 kPa, x1 = 0.00359	–	0.935 mPa·s	–	–	–	–
101 kPa, x1 = 0.004484	–	0.946 mPa·s	–	–	–	–
101 kPa, x1 = 0.006266	–	0.97 mPa·s	–	–	–	–

OC[C@H]1O[C@H](O[C@H]2[C@H](O)[C@@H](O)C(O)O[C@@H]2CO)[C@H](O)[C@@H](O)[C@@H]1O (stereo not given in full) + O
viscosity [mPa·s]
Details	293.15 K	298.15 K	303.15 K	308.15 K	313.15 K
100 kPa, x1 = 0.000179	1.019	0.9	0.807	0.721	0.657
100 kPa, x1 = 0.0005382	1.027	0.911	0.816	0.733	0.667
100 kPa, x1 = 0.0008969	1.038	0.922	0.827	0.742	0.675
100 kPa, x1 = 0.001255	1.049	0.931	0.832	0.747	0.68
100 kPa, x1 = 0.001614	1.059	0.94	0.84	0.755	0.686
101.3 kPa, x1 = 0.002	1.11	0.987	0.887	0.799	0.728
101.33 kPa, x1 = 0.00359	–	1.072	–	–	–
101.33 kPa, x1 = 0.007154	–	1.294	–	–	–
101.33 kPa, x1 = 0.01069	–	1.565	–	–	–
101.33 kPa, x1 = 0.01421	–	1.894	–	–	–
101.33 kPa, x1 = 0.0177	–	2.289	–	–	–
101.33 kPa, x1 = 0.02116	–	2.775	–	–	–
